The other results are listed elsewhere or left out. Single values are uncertain, as repeats are few or missing.
The molecules below were run on A101D (assay: cell count relative to DMSO control; melanoma cells; higher = more viable cells). Settings: library dose: standard library concentration; 72 h.
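Further: cells treated in 1,536-well plates, then fixed and DAPI-stained, with nuclei counted from automated high-throughput microscope images.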

| SMILES | cell count [%] |
| --- | --- |
| NC(=O)c1ccc(N(C(N)=O)c2c(F)cccc2F)nc1-c1ccc(F)cc1F + COc1cc(Nc2ncc(F)c(Nc3ccc4c(n3)NC(=O)C(C)(C)O4)n2)cc(OC)c1OC [Tamatinib] (first compound 2 µM, partner dose 2 µM) | 26.7 |
| NC(=O)c1ccc(N(C(N)=O)c2c(F)cccc2F)nc1-c1ccc(F)cc1F + CN(NC(=O)CC(=O)NN(C)C(=S)c1ccccc1)C(=S)c1ccccc1 [STA4783] (first compound 2 µM, partner dose 0.03 µM) | 21.7 |
| NC(=O)c1ccc(N(C(N)=O)c2c(F)cccc2F)nc1-c1ccc(F)cc1F + C[C@]1(O)C[C@@H](c2nc(-c3ccc4ccc(-c5ccccc5)nc4c3)c3c(N)nccn32)C1 [OSI906] (first compound 2 µM, partner dose 2 µM) | 95.4 |
| NC(=O)c1ccc(N(C(N)=O)c2c(F)cccc2F)nc1-c1ccc(F)cc1F + Cn1cncc1[C@@](N)(c1ccc(Cl)cc1)c1ccc2c(c1)c(-c1cccc(Cl)c1)cc(=O)n2C [tipifarnib] (first compound 2 µM, partner dose 0.05 µM) | 72.5 |
| CCCCCCCCc1ccc(CCC(N)(CO)CO)cc1 [fingolimod] + CCCS(=O)(=O)Nc1ccc(F)c(C(=O)c2c[nH]c3ncc(Cl)cc23)c1F [PLX4720] (first compound 10 µM, partner dose 0.4 µM) | 6.26 |
| NC(=O)c1ccc(N(C(N)=O)c2c(F)cccc2F)nc1-c1ccc(F)cc1F + Oc1nc(-c2ccc(C(F)(F)F)cc2)nc2c1CSCC2 [XAV939] (first compound 2 µM, partner dose 10 µM) | 102 |

What follows are molecules tested on A2058 in the same assay as above. Settings: library dose: standard library concentration; 72 h.

| SMILES | cell count [%] |
| --- | --- |
| NC(=O)c1ccc(N(C(N)=O)c2c(F)cccc2F)nc1-c1ccc(F)cc1F + CNC(=O)c1cc(Oc2ccc(NC(=O)Nc3ccc(Cl)c(C(F)(F)F)c3)cc2)ccn1 [sorafenib] (first compound 2 µM, partner dose 2 µM) | 123 |
| COc1cc2c(Oc3ccc4[nH]c(C)cc4c3F)ncnc2cc1OCCCN1CCCC1 [cediranib] + O=c1cc(-c2cccc3c2Sc2ccccc2S3)oc(N2CCOCC2)c1 [KU55933] (first compound 2 µM, partner dose 5 µM) | 82.3 |
| CCCCCCCCc1ccc(CCC(N)(CO)CO)cc1 [fingolimod] + Nc1ccn([C@@H]2O[C@H](CO)[C@@H](O)C2(F)F)c(=O)n1 [gemcitabine] (first compound 10 µM, partner dose 0.002 µM) | 6.14 |
| NC(=O)c1ccc(N(C(N)=O)c2c(F)cccc2F)nc1-c1ccc(F)cc1F + CCN(CC)CCNC(=O)c1c(C)[nH]c(/C=C2\C(=O)Nc3ccc(F)cc32)c1C [sunitinib] (first compound 2 µM, partner dose 2 µM) | 68.1 |
| CC(C)(C)c1cnc(CSc2cnc(NC(=O)C3CCNCC3)s2)o1 + Cc1cc(N2CCOCC2)cc2[nH]c(-c3c(NC[C@@H](O)c4cccc(Cl)c4)cc[nH]c3=O)nc12 [BMS536924] (first compound 0.05 µM, partner dose 1 µM) | 73 |
| Cc1ccc(NC(=O)c2cccc(N(C)C)c2)cc1NC(=O)c1ccc(O)cc1 + NC(=O)Nc1cc(-c2cccc(F)c2)sc1C(=O)N[C@H]1CCCNC1 [AZD7762] (first compound 10 µM, partner dose 0.1 µM) | 69.7 |
| NC(=O)c1ccc(N(C(N)=O)c2c(F)cccc2F)nc1-c1ccc(F)cc1F + NCC(=O)Nc1ccc(-n2nc(C(F)(F)F)cc2-c2ccc3c(ccc4ccccc43)c2)cc1 [OSU03012] (first compound 2 µM, partner dose 5 µM) | 111 |
| CCCCCCCCc1ccc(CCC(N)(CO)CO)cc1 [fingolimod] + NC1(c2ccc(-c3nc4ccn5c(=O)[nH]nc5c4cc3-c3ccccc3)cc2)CCC1 [MK2206] (first compound 10 µM, partner dose 2 µM) | 9.29 |
| CC(C)(C)c1cnc(CSc2cnc(NC(=O)C3CCNCC3)s2)o1 + NC(=O)Nc1cc(-c2cccc(F)c2)sc1C(=O)N[C@H]1CCCNC1 [AZD7762] (first compound 0.05 µM, partner dose 0.1 µM) | 63.7 |
| CC(C)(C)c1cnc(CSc2cnc(NC(=O)C3CCNCC3)s2)o1 + CN(NC(=O)CC(=O)NN(C)C(=S)c1ccccc1)C(=S)c1ccccc1 [STA4783] (first compound 0.05 µM, partner dose 0.03 µM) | 8.6 |

Reference: the supplement of paper PMC4604168 (melanoma cell lines)
